# The supplement of paper PMC4967469
# A lower IC50 marks a more sensitive line; a limit (>, <) means that the fit lies beyond the doses tested. AUC sums up the same curve from the lowest dose to the 256-fold higher top dose; the more sensitive the line, the further below 1. For some assays here: Any top dose called inferred comes from the curve model; the source does not state it.
# How the values were obtained:
# Experiment in all cases: Viability of human cancer cell lines after 72 h of drug (GDSC screen)
# HG-6-64-1 = compound: CCN1CCN(Cc2ccc(NC(=O)c3ccc(C)c(/C=C/c4cnc5[nH]ccc5c4OC)c3)cc2C(F)(F)F)CC1 [HG-6-64-1]; details: top dose 5.12 µM; top dose inferred
# Method: (§1)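 Human cancer cell lines in 384-well plates, medium with 10% serum, drug for 72 h over a 256-fold dose range (nine 2-fold or five 4-fold steps up to the top dose). Adherent lines were fixed and stained with the nucleic acid dye Syto60, suspension lines read with resazurin; signal relative to control wells, capped at 0 and 100%. One two-parameter sigmoid per drug and line, fitted in a mixed model over all curves with the slope shared within a line.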
# AV-951 = compound: COc1cc2nccc(Oc3ccc(NC(=O)Nc4cc(C)on4)c(Cl)c3)c2cc1OC [AV-951]; details: top dose 0.128 µM; top dose inferred
# Method: as §1
# KIN001-244 = compound: O=C(NC(COc1ccc2[nH]c(=O)[nH]c2c1)c1ccccc1)c1cccn(Cc2ccc(F)c(F)c2)c1=O [KIN001-244]; details: top dose 20 µM; top dose inferred
# Method: as §1
# PF-4708671 = compound: CCc1cncnc1N1CCN(Cc2nc3ccc(C(F)(F)F)cc3[nH]2)CC1 [PF-4708671]; details: top dose 10 µM; top dose inferred
# Method: as §1
# Trametinib = compound: CC(=O)Nc1cccc(-n2c(=O)n(C3CC3)c(=O)c3c(Nc4ccc(I)cc4F)n(C)c(=O)c(C)c32)c1 [Trametinib]; details: top dose 1 µM
# Method: as §1
# I-BET-762 = compound: CCNC(=O)C[C@@H]1N=C(c2ccc(Cl)cc2)c2cc(OC)ccc2-n2c(C)nnc21 [I-BET-762]; details: top dose 20 µM; top dose inferred
# Method: as §1
Cell Line,AUC (HG-6-64-1),IC50 (HG-6-64-1) [µM],AUC (AV-951),IC50 (AV-951) [µM],AUC (KIN001-244),IC50 (KIN001-244) [µM],AUC (PF-4708671),IC50 (PF-4708671) [µM],AUC (Trametinib),IC50 (Trametinib) [µM],AUC (I-BET-762),IC50 (I-BET-762) [µM]
"COR-L105 (lung adenocarcinoma, adherent)",0.585,0.577,0.981,> 0.128,0.781,10.3,0.915,> 10,0.529,0.0761,0.632,3.15
"CP50-MEL-B (melanoma, adherent)",0.97,> 5.12,0.988,> 0.128,0.846,14.3,0.84,6.77,0.089,< 0.00391,0.84,13.5
"CS1 (bone, adherent)",0.764,2.06,0.97,> 0.128,0.716,5.55,0.971,> 10,0.825,0.695,0.973,> 20
"Ca9-22 (head and neck, adherent)",0.751,1.58,0.985,> 0.128,0.924,> 20,0.921,> 10,0.278,0.0155,0.878,17.6
"Ca-Ski (cervix, adherent)",0.561,0.479,0.972,> 0.128,0.66,3.68,0.983,> 10,0.87,> 1,0.768,8.39
"CaR-1 (large intestine, adherent)",0.897,> 5.12,0.972,> 0.128,0.905,> 20,0.856,> 10,0.804,0.837,0.978,> 20
"Calu-3 (lung adenocarcinoma, adherent)",0.853,> 5.12,0.973,> 0.128,0.908,> 20,0.972,> 10,0.78,0.526,0.983,> 20
"Capan-2 (pancreas, adherent)",0.824,3.95,0.965,> 0.128,0.979,> 20,0.985,> 10,0.249,,0.941,> 20
"ChaGo-K-1 (non-small cell lung carcinoma, adherent)",0.907,> 5.12,0.979,> 0.128,0.906,> 20,0.979,> 10,0.979,> 1,0.964,> 20
"DBTRG-05MG (glioma, adherent)",0.612,0.685,0.979,> 0.128,0.92,> 20,0.979,> 10,0.7,0.254,0.958,> 20
"DK-MG (glioma, adherent)",0.613,0.762,0.9,> 0.128,0.932,> 20,0.791,7.2,0.449,0.0424,0.822,> 20
"DMS-53 (small cell lung carcinoma, adherent)",0.934,> 5.12,0.988,> 0.128,0.988,> 20,0.932,> 10,0.892,> 1,0.982,> 20
"DOK (head and neck, adherent)",0.806,4.41,0.975,> 0.128,0.976,> 20,0.869,> 10,0.266,0.00941,0.956,> 20
"Daoy (medulloblastoma, adherent)",0.83,2.81,0.946,> 0.128,0.904,> 20,0.953,> 10,0.936,> 1,0.845,12.5
"Detroit562 (head and neck, adherent)",0.813,2.64,0.988,> 0.128,0.95,> 20,0.96,> 10,0.917,> 1,0.987,> 20
"DoTc2-4510 (cervix, adherent)",0.604,0.608,0.989,> 0.128,0.922,> 20,0.978,> 10,0.955,> 1,0.968,> 20
"EBC-1 (lung squamous cell carcinoma, adherent)",0.796,2.76,0.98,> 0.128,0.924,> 20,0.907,> 10,0.195,0.00668,0.96,> 20
"ECC10 (stomach, suspension)",0.698,1.19,0.963,> 0.128,0.91,> 20,0.96,> 10,0.581,0.105,0.935,> 20
"EFM-19 (breast, adherent)",0.723,1.95,0.978,> 0.128,0.782,13.5,0.966,> 10,0.952,> 1,0.845,> 20
"EFM-192A (breast, adherent)",0.832,3.79,0.983,> 0.128,0.915,> 20,0.947,> 10,0.955,> 1,0.871,> 20
"EFO-21 (ovary, adherent)",0.741,2.17,0.969,> 0.128,0.858,> 20,0.929,> 10,0.811,0.844,0.916,> 20
"EFO-27 (ovary, adherent)",0.627,0.786,0.977,> 0.128,0.908,> 20,0.947,> 10,0.544,0.0851,0.958,> 20

Cell Line,AUC (HG-6-64-1),IC50 (HG-6-64-1) [µM],AUC (AV-951),IC50 (AV-951) [µM],AUC (KIN001-244),IC50 (KIN001-244) [µM],AUC (PF-4708671),IC50 (PF-4708671) [µM],AUC (Trametinib),IC50 (Trametinib) [µM],AUC (I-BET-762),IC50 (I-BET-762) [µM]
"EN (endometrium, adherent)",0.982,> 5.12,0.97,> 0.128,0.88,> 20,0.974,> 10,0.972,> 1,0.972,> 20
"EPLC-272H (lung squamous cell carcinoma, adherent)",0.849,4.65,0.981,> 0.128,0.871,> 20,0.979,> 10,0.308,0.0167,0.953,> 20
"ESS-1 (endometrium, adherent)",0.701,1.1,0.985,> 0.128,0.99,> 20,0.988,> 10,0.844,0.612,0.97,> 20
"EW-7 (Ewing sarcoma, semi-adherent)",0.812,2.33,0.988,> 0.128,0.777,7.04,0.977,> 10,0.978,> 1,0.966,> 20
"FTC-133 (thyroid, adherent)",0.957,> 5.12,0.983,> 0.128,0.965,> 20,0.947,> 10,0.734,0.314,0.986,> 20
"FU97 (stomach, adherent)",0.663,0.92,0.985,> 0.128,0.879,> 20,0.836,6.89,0.728,0.284,0.949,> 20
"G-361 (melanoma, adherent)",0.654,0.837,0.988,> 0.128,0.832,12.1,0.688,2.04,0.107,< 0.00391,0.914,> 20
"G-401 (kidney, adherent)",0.62,0.708,0.979,> 0.128,0.822,13.1,0.927,> 10,0.699,0.242,0.847,16.9
"G-402 (soft tissue, adherent)",0.39,0.144,0.814,0.101,0.813,15.6,0.921,> 10,0.755,0.445,0.892,> 20
"GAK (melanoma, adherent)",0.878,4.77,0.989,> 0.128,0.885,> 20,0.985,> 10,0.105,< 0.00391,0.971,> 20
"GAMG (glioma, adherent)",0.73,1.5,0.979,> 0.128,0.845,15.5,0.905,> 10,0.813,0.573,0.954,> 20
"GCT (soft tissue, adherent)",0.545,0.421,0.989,> 0.128,0.989,> 20,0.956,> 10,0.877,0.886,0.989,> 20
"GP5d (large intestine, adherent)",0.649,0.79,0.991,> 0.128,0.937,> 20,0.984,> 10,0.898,> 1,0.895,19.8
"H4 (glioma, adherent)",0.718,1.31,0.978,> 0.128,0.908,> 20,0.928,> 10,0.803,0.491,0.983,> 20
"H513 (mesothelioma, semi-adherent)",0.975,> 5.12,0.981,> 0.128,0.981,> 20,0.986,> 10,0.606,0.13,0.972,> 20
"H2369 (mesothelioma, adherent)",0.324,0.101,0.986,> 0.128,0.912,> 20,0.966,> 10,0.778,0.42,0.969,> 20
"H2373 (mesothelioma, adherent)",0.803,3.36,0.972,> 0.128,0.772,9.78,0.975,> 10,0.725,0.327,0.98,> 20
"H2461 (mesothelioma, adherent)",0.859,> 5.12,0.983,> 0.128,0.952,> 20,0.983,> 10,0.79,0.571,0.971,> 20
"H2591 (mesothelioma, adherent)",0.694,1.33,0.976,> 0.128,0.857,> 20,0.947,> 10,0.885,> 1,0.925,> 20
"H2595 (mesothelioma, adherent)",0.866,> 5.12,0.974,> 0.128,0.958,> 20,0.973,> 10,0.902,> 1,0.89,> 20
"H2722 (mesothelioma, adherent)",0.884,> 5.12,0.984,> 0.128,0.847,19.1,0.964,> 10,0.703,0.263,0.934,> 20
"H2731 (mesothelioma, adherent)",0.705,1.33,0.974,> 0.128,0.852,19.1,0.948,> 10,0.832,0.771,0.532,1.55
